Data from patent publication US20030119903A1, “Use of trimebutine for treating pain” (priority 1999, published 2003).

molecular target: site 2 of the sodium channel; format: binding; conditions: rat cortical synaptosomes, 10 nM [3H]-batrachotoxin, 90 min 25° C.; read-out: Ki, displacement of [3H]-batrachotoxin

Question: CC[C@@](COC(=O)c1cc(OC)c(OC)c(OC)c1)(c1ccccc1)N(C)C [(S)-Trimebutine] was tested. Which Ki did it give?
Answer: 3310 ± 360 nM

Question: For CC[C@](COC(=O)c1cc(OC)c(OC)c(OC)c1)(c1ccccc1)N(C)C [(R)-Trimebutine], which Ki is on record?
Answer: 2890 ± 880 nM

Question: With CC[C@](COC(=O)c1cc(OC)c(OC)c(OC)c1)(NC)c1ccccc1 [(S)-Nor-TMB, (S)-N-desmethyl trimebutine] as the molecule, how does the Ki read?
Answer: 800 ± 40 nM

Question: Which Ki does the source give for CCC(COC(=O)c1cc(OC)c(OC)c(OC)c1)(c1ccccc1)N(C)C.O=C(O)/C=C\C(=O)O (racemic) [trimebutine, 2-dimethylamino-2-phenylbutyl 3,4,5-trimethoxybenzoate hydrogen maleate] here?
Answer: 2660 ± 150 nM

Question: How did the Ki turn out when CC[C@@](COC(=O)c1cc(OC)c(OC)c(OC)c1)(NC)c1ccccc1 [(R)-Nor-TMB, (R) N-desmethyl trimebutine] was run?
Answer: 1260 ± 70 nM

Question: With CCCCN1CCCCC1C(=O)Nc1c(C)cccc1C (stereo not drawn) [bupivacaine] as the molecule, how does the Ki read?
Answer: 7140 ± 960 nM
